Consider 40 compounds from the antibiotic and cytotoxicity screens of Wong et al. (2023).

Structures are written as SMILES. This is one part of the list.

The test system of this experiment is HSkMC (human skeletal muscle cells). The experiment is described as follows: cytotoxicity call (relative viability < 0.9). The following applies: 10 µM.
In the case of `C[C@@H]1CN([C@@H](C)CO)C(=O)c2cc(NC(=O)Nc3ccc4c(c3)OCO4)ccc2O[C@@H]1CN(C)Cc1ccc(C(F)(F)F)cc1`, the cytotoxicity call was “inactive”.
For the compound `C[C@H]1CCCCO[C@H](CN(C)CC2CC2)[C@@H](C)CN([C@@H](C)CO)C(=O)c2cc(NC(=O)Nc3ccc4c(c3)OCO4)ccc2O1`, the cytotoxicity call was “inactive”.
For the compound `CN(C)CC(=O)N1CC2(C1)[C@@H](c1ccccc1)[C@H](CO)N2S(C)(=O)=O`, the cytotoxicity call was “inactive”.
For `C[C@@H]1CN([C@H](C)CO)C(=O)c2cc(NC(=O)Cc3cn(C)c4ccccc34)ccc2O[C@H]1CN(C)S(=O)(=O)c1cn(C)cn1` the value was “inactive”.
Turning to `C[C@H]1CN([C@@H](C)CO)C(=O)c2cc(NC(=O)CCCCCC(=O)Nc3ccccc3N)ccc2O[C@@H]1CN(C)C(=O)Nc1ccc(C(F)(F)F)cc1`, the cytotoxicity call was “inactive”.
In the case of `C[C@@H]1CN([C@@H](C)CO)C(=O)CCCn2cc(nn2)CO[C@@H]1CN(C)C(=O)Nc1ccc(N2CCCCC2)cc1`, the cytotoxicity call was “inactive”.
With `CC1=C(C(=O)O)N2C(=O)[C@@H](NC(=O)[C@@H](N)c3ccc(O)cc3)[C@H]2SC1`, the cytotoxicity call is “inactive”.
With `C=CCOC(=O)[C@H]1[C@@H]2C(=O)O[C@@H](c3ccccc3)[C@@H](c3ccccc3)N2[C@@H](c2ccc(OCCOC(=O)[C@@H]3C[C@@H]4C(=O)N[C@@H](CCCC[N+](C)(C)C)C(=O)N4[C@@H]3c3cccc(OCCO)c3)cc2)[C@]12C(=O)Nc1ccc(I)cc12`, the cytotoxicity call is “inactive”.
On to `O=C(O)[C@@H]1CCCC[C@@H]1C(=O)N1CCc2ccccc2[C@H]1CN1C(=O)c2ccccc2C1=O.O=C(O)[C@H]1CCCC[C@@H]1C(=O)N1CCc2ccccc2[C@H]1CN1C(=O)c2ccccc2C1=O`, for which the cytotoxicity call is “inactive”.
On to `COc1cccc(C#Cc2ccc3c(c2)O[C@H](CN(C)C(=O)c2ccccn2)[C@@H](C)CN([C@@H](C)CO)S3(=O)=O)c1`, for which the cytotoxicity call is “inactive”.
Then `N[C@H]1CCN(O)C1=O`, with “inactive”.
In the case of `C[C@@H]1CN([C@H](C)CO)C(=O)Cc2cc(NC(=O)Cc3cn(C)c4ccccc34)ccc2O[C@H]1CN(C)S(=O)(=O)c1cn(C)cn1`, the cytotoxicity call is “inactive”.
For the compound `CCC(=O)N[C@@H]1CC[C@H](CC(=O)OC)O[C@@H]1CO`, the cytotoxicity call is “inactive”.
For `C[C@H]1CN([C@@H](C)CO)C(=O)Cc2cc(NC(=O)C3CC3)ccc2O[C@H]1CN(C)C(=O)Nc1ccc2c(c1)OCO2`, the cytotoxicity call is “inactive”.
For the compound `C[C@H]1CN([C@@H](C)CO)C(=O)CCCn2cc(nn2)CO[C@H]1CN(C)C(=O)C1CC1`, the cytotoxicity call is “inactive”.
In the case of `C[C@@H]1CN([C@H](C)CO)C(=O)c2cccc(NC(=O)c3nc4ccccc4s3)c2O[C@@H]1CN(C)CC1CCCCC1`, the cytotoxicity call is “inactive”.
For `Cc1noc(C)c1S(=O)(=O)N(C)C[C@H]1Oc2ccc(NC(=O)CCN3CCOCC3)cc2C(=O)N([C@H](C)CO)C[C@H]1C` the value was “inactive”.
As to `CN(C)CCCNC(=O)C[C@@H]1CC[C@@H]2[C@H](COC[C@@H](O)CN2S(=O)(=O)c2ccc(Cl)cc2)O1`, the cytotoxicity call was “inactive”.
As to `O=C(O)CN1Cc2ccccc2C1=O`, the cytotoxicity call is “inactive”.
In the case of `C[C@@H]1CN([C@H](C)CO)C(=O)c2cccc(NC(=O)c3ccc(-c4nccs4)cc3)c2O[C@@H]1CN(C)C(=O)NC1CCCCC1`, the cytotoxicity call was “inactive”.
For the compound `C[C@@H]1CN([C@@H](C)CO)C(=O)c2cccc(NC(=O)c3cnccn3)c2O[C@@H]1CN(C)Cc1ccc2c(c1)OCO2`, the cytotoxicity call was “inactive”.
For the compound `CCc1nc2ccc(C(=O)NCCCN3CCCC3=O)cn2c1N(CC)C(=O)NCCc1ccccc1`, the cytotoxicity call was “inactive”.
Consider `COc1cccc(NC(=O)N2C[C@H](O)COC[C@@H]3O[C@H](CC(=O)NCc4ccccc4F)CC[C@H]32)c1`, for which the cytotoxicity call is “inactive”.
For `CN(C)C(=O)C[C@@H]1C=C[C@@H](NC(=O)C2CC2)[C@@H](CO)O1` the value was “inactive”.
Consider `C[C@@H]1CCCCO[C@H](CN(C)C(=O)Nc2ccc(F)cc2)[C@H](C)CN([C@@H](C)CO)C(=O)c2cc(NC(=O)Cc3ccccc3)ccc2O1`, for which the cytotoxicity call was “inactive”.
For `COc1ccc(S(=O)(=O)N(C)C[C@@H]2OCCCC[C@@H](C)Oc3ccc(NC(=O)NC4CCCCC4)cc3C(=O)N([C@H](C)CO)C[C@H]2C)cc1` the value was “inactive”; for `COc1ccc(NC(=O)N[C@H]2CC[C@@H](CCNC(=O)CN3CCOCC3)O[C@H]2CO)cc1`, “inactive”.
Then `O=c1c2ccccc2oc2ccccc12`, with “inactive”.
Regarding `Nc1ccn2ccnc2c1`, the cytotoxicity call was “inactive”.
As for `C[C@H](CO)N1C[C@H](C)[C@H](CN(C)S(=O)(=O)c2ccc(Cl)cc2)OCCCC[C@H](C)Oc2ccc(NC(=O)Nc3ccc(C(F)(F)F)cc3)cc2C1=O`, the cytotoxicity call was “inactive”.
For `COc1ccc(C#Cc2cnc3c(c2)C(=O)N([C@H](C)CO)C[C@H](C)[C@H](CN(C)C(=O)CN(C)C)O3)cc1`, the cytotoxicity call was “inactive”.
Turning to `C[C@@H]1CN([C@H](C)CO)C(=O)c2cccc(NC(=O)c3ccc(-c4nccs4)cc3)c2O[C@H]1CN(C)S(C)(=O)=O`, the cytotoxicity call is “inactive”.
`COc1ccc2c3c([nH]c2c1)[C@H](CO)N(C[C@]13CN(CC2CCOCC2)C1)C(=O)Nc1c(noc1C)C`: the cytotoxicity call is “inactive”.
As for `C[C@H]1CN([C@@H](C)CO)C(=O)CCCn2nncc2CO[C@H]1CN(C)C(=O)Nc1ccc(N2CCN(C)CC2)cc1`, the cytotoxicity call is “inactive”.
For `Cc1noc(C)c1NC(=O)N(C)C[C@@H]1Oc2c(NC(=O)Nc3cccc4ccccc34)cccc2C(=O)N([C@H](C)CO)C[C@H]1C`, the cytotoxicity call is “inactive”.
As to `C[C@@H]1CCCCO[C@H](CN(C)C(=O)C2CCCCC2)[C@H](C)CN([C@@H](C)CO)C(=O)c2cc(NC(=O)CCC(F)(F)F)ccc2O1`, the cytotoxicity call was “inactive”.
In the case of `C[C@@H]1CN([C@H](C)CO)C(=O)c2cccc(NC(=O)Nc3ccccc3)c2O[C@H]1CN(C)Cc1ccc(-c2ccccc2)cc1`, the cytotoxicity call was “active”.
For `C[C@@H]1CCCCO[C@@H](CN(C)Cc2ccc(C(F)(F)F)cc2)[C@@H](C)CN([C@@H](C)CO)C(=O)c2cc(NS(C)(=O)=O)ccc2O1` the value was “inactive”; for `C[C@H]1CN([C@@H](C)CO)C(=O)c2cccc(NC(=O)c3ccncc3)c2O[C@H]1CN(C)S(=O)(=O)c1ccc(F)cc1`, “inactive”; for `C[C@@H]1CN([C@@H](C)CO)C(=O)Cc2cc(NS(=O)(=O)c3ccccc3)ccc2O[C@@H]1CN(C)Cc1ccc2c(c1)OCO2`, “inactive”.
